Measured values reported in PubChem BioAssay AID588855 (National Center for Advancing Translational Sciences (NCATS), 2011).
In all, about 410,000 compounds went through this assay and about 5,000 (1.2%) were called active. Inconclusive results, whose numbers are uncertain, are shown with a selection of clear calls. Calls follow the shape of the dose curve; as a rule, active = well fitted inhibition curve with a large enough effect; inconclusive = small, poorly fitted or top-dose-only effect; inactive = no such curve, though single readings can be large or run the other way. Potencies beside an inconclusive call are fits to weak or partial responses and may not hold up.

Test: qHTS for Inhibitors of TGF-b; also: nearly all actives have a fitted effect of over 65% in size
Conditions: HepG2 CAGA-GFP TGF-b/SMAD3 reporter, GFP fluorescence, 18 h, TGF-beta stimulated, 500 pg/mL final; series mostly up to 46.1 µM; activity, negative = inhibition: at the top concentration
How it was run: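 Using HEPG2 CAGA-GFP reporter cells at 1000 cells/well, we pinned test compounds, stimulated with recombinant TGF-beta (500 pg/mL final) and measured total well GFP after 18 h.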
% is scaled to controls: 0 for no effect and ±100 for the full control effect; potency is read from the fitted curve at half-maximal effect; tags tell the direction and shape of the fitted curve.

**Q.** For `CCOC(=O)N1CCN(C(=O)c2ccc3nc4cc(Cl)ccc4c(=O)n3c2)CC1`, which Potency is on record?
**A.** inconclusive: 3.55 µM [inhibitor, single point]

**Q.** For `Cc1ccc(C(C)C)c(OCC(=O)NNC(=O)Nc2ccccc2)c1`, which Potency is on record?
**A.** inconclusive: 22.4 µM [inhibitor, single point]

**Q.** For `CCOC(=O)c1ccc(N=CC2=C(O)CC(C)(C)CC2=O)cc1`, which Potency is on record?
**A.** inconclusive: 0.112 µM [inhibitor, full curve, poor fit]

**Q.** Which Potency does the source give for `COc1ccccc1NC1CCCCC1NS(=O)(=O)c1ccccc1` (stereo not drawn) here?
**A.** inconclusive: 5.62 µM [inhibitor, single point]

**Q.** For `CCOc1ccccc1CNCc1cccn1-c1nnc(N2CCN(c3ccccc3)CC2)s1`, which Potency is on record?
**A.** inconclusive: 5.62 µM [inhibitor, partial curve, poor fit]

**Q.** With `c1ccc(COc2ccc(OCCCNC3CCCC3)cc2)cc1` as the molecule, how does the Potency read?
**A.** inconclusive: 35.5 µM [inhibitor, single point]

**Q.** With `O=C1CCCc2nn(-c3ccccc3)c(-c3ccncc3)c21` as the molecule, how does the Potency read?
**A.** inconclusive: 20 µM [inhibitor, single point]

**Q.** For `CC(=O)c1c(C)oc2c1cc(NS(=O)(=O)c1ccc(Br)cc1)c1ccccc12`, which “activity, negative = inhibition” value is on record?
**A.** inactive: -17.7%

**Q.** For `Cc1c(Cl)cccc1-n1ncc(C(=O)Nc2ccc(Br)cc2F)c1C1CCNCC1`, which Potency is on record?
**A.** inconclusive: 11.2 µM [inhibitor, single point]

**Q.** With `Nn1cnnc1N/N=C/c1cc(Br)cc(Br)c1O` as the molecule, how does the “activity, negative = inhibition” value read?
**A.** inactive: -32.6%

**Q.** For `O=C(c1cnn(Cc2ccccc2)c1)N1CCN(S(=O)(=O)/C=C/c2ccccc2)CC1`, which Potency is on record?
**A.** inconclusive: 35.5 µM [inhibitor, single point]

**Q.** With `Cc1cc(NC(=S)N(CCCN2CCOCC2)Cc2ccco2)ccc1Cl` as the molecule, how does the Potency read?
**A.** inconclusive: 25.1 µM [inhibitor, single point]

**Q.** With `O=C(Nc1ccccc1F)c1ccc2c(Cl)c3c(nc2c1)CCC3` as the molecule, how does the Potency read?
**A.** inconclusive: 35.5 µM [inhibitor, single point]

**Q.** With `CN(CC(=O)NC(=O)NCc1ccccc1)CC(=O)Nc1ccc(Cl)c(C(F)(F)F)c1` as the molecule, how does the Potency read?
**A.** inconclusive: 15.8 µM [inhibitor, single point]

**Q.** With `Cc1cc(Oc2ccccc2)nc(SCC(=O)Nc2ccc(Cl)c(Cl)c2)n1` as the molecule, how does the Potency read?
**A.** inconclusive: 15.8 µM [inhibitor, partial curve, poor fit]

**Q.** With `Cc1cccnc1NC(=O)c1c(O)c2cccc3c2n(c1=O)CCC3` as the molecule, how does the “activity, negative = inhibition” value read?
**A.** inactive: -25%

**Q.** For `CC1C(=O)Nc2ccccc2N1C(=O)c1ccc(O)cc1` (stereo not drawn), which “activity, negative = inhibition” value is on record?
**A.** inactive: -11.8%

**Q.** For `CCOC(=O)N1CCN(CC(=O)Nc2ccc([N+](=O)[O-])cc2C(=O)Nc2ccccc2F)CC1`, which “activity, negative = inhibition” value is on record?
**A.** inactive: 1.59%

**Q.** For `O=C(Nc1ccc(Br)cc1Br)C1CC(=O)N(Cc2ccccc2)C1` (stereo not drawn), which Potency is on record?
**A.** inconclusive: 35.5 µM [inhibitor, single point]

**Q.** For `N#Cc1c(-c2ccc(Cl)cc2)c(-c2ccc(Cl)cc2)nn(CCOC(=O)CCC(=O)O)c1=O`, which Potency is on record?
**A.** inconclusive: 12.6 µM [inhibitor, single point]

**Q.** Which “activity, negative = inhibition” value does the source give for `COc1ccc(-c2c(C#Cc3ccsc3)c3cc(-c4ccc5c(c4)OCO5)ccc3n2C)cc1` here?
**A.** inactive: 3.02%

**Q.** For `Cc1ccc(N2CCN(S(=O)(=O)c3cccc4ccccc34)CC2)cc1Cl`, which Potency is on record?
**A.** inconclusive: 5.62 µM [inhibitor, partial curve]

**Q.** With `COCCNC(=S)N1CCC2CC1c1c(Cl)cccc12` (stereo not drawn) as the molecule, how does the “activity, negative = inhibition” value read?
**A.** inactive: 1.11%

**Q.** Which “activity, negative = inhibition” value does the source give for `O=C(Cn1nc(C(F)(F)F)c2c1CCCC2)Nc1ccc(Br)cc1` here?
**A.** inactive: -10.1%

**Q.** For `Cc1ccc(-n2nnnc2CNC(=O)c2cc(C(F)(F)F)cc(C(F)(F)F)c2)cc1C`, which Potency is on record?
**A.** inconclusive: 0.1 µM [inhibitor, full curve, poor fit]

**Q.** With `CCn1cc(CN2CCCC(C(=O)Nc3cccc(-c4cc5ccccc5[nH]4)c3)C2)cn1` (stereo not drawn) as the molecule, how does the Potency read?
**A.** inconclusive: 35.5 µM [inhibitor, single point]

**Q.** For `CCn1c(-c2cc(-c3ccccc3)sc2N)n[nH]c1=S`, which Potency is on record?
**A.** inconclusive: 15.8 µM [inhibitor, single point]

**Q.** For `COc1cccc(CNC(=O)COc2cc(=O)n(C)c3ccccc23)c1`, which “activity, negative = inhibition” value is on record?
**A.** inactive: 3.69%

**Q.** For `CC(C)C[C@@H](CN1CCC[C@@H]1CN1C(=S)NC[C@@H]1Cc1ccc(O)cc1)N1C[C@H](Cc2ccccc2)N(CCc2ccccc2)C1=S`, which Potency is on record?
**A.** active: 15.8 µM

**Q.** Which Potency does the source give for `Cc1ccc(C)c(NC(=S)NCc2ccc3[nH]c4c(c3c2)CCCC4)c1` here?
**A.** inconclusive: 22.4 µM [inhibitor, single point]

**Q.** With `O=S(=O)(NCc1ccccc1)[C@@H]1CC2C=CC1C2` (stereo partly drawn) as the molecule, how does the Potency read?
**A.** inactive

**Q.** With `COc1ccccc1NC(=O)CN1CCN(c2ccc(Cl)cc2)CC1` as the molecule, how does the Potency read?
**A.** inconclusive: 35.5 µM [inhibitor, single point]

**Q.** Which “activity, negative = inhibition” value does the source give for `COc1ccc(/C=C\C(=O)NCC(=O)N/N=C/c2cccc(OC)c2O)cc1` here?
**A.** inactive: -5.38%

**Q.** With `Clc1ccc(OCc2noc(-c3ccsc3)n2)c(Cl)c1` as the molecule, how does the “activity, negative = inhibition” value read?
**A.** inactive: -0.567%

**Q.** With `CCCOc1ccc(S(=O)(=O)N2CCN(C)CC2)c2ccccc12` as the molecule, how does the Potency read?
**A.** inconclusive: 14.1 µM [inhibitor, single point]

**Q.** Which Potency does the source give for `FC(F)(F)c1ccccc1Cc1c(-c2ccccc2)nc2ccc(Cl)cn12` here?
**A.** active: 15.8 µM

**Q.** For `CC(=O)c1cnc(Nc2nc(C)c3ccc(C)cc3n2)nc1C`, which “activity, negative = inhibition” value is on record?
**A.** inactive: 10.2%

**Q.** With `O=C(Cc1ccc(NC(=O)C2CCN(C(=O)C3CC3)CC2)cc1)Nc1ccc(C(=O)N2CCOCC2)cc1` as the molecule, how does the “activity, negative = inhibition” value read?
**A.** inactive: -9.4%

**Q.** For `COC1c2ccccc2C(=O)N1Cc1ccc(F)cc1` (stereo not drawn), which “activity, negative = inhibition” value is on record?
**A.** inactive: -16.6%

**Q.** Which Potency does the source give for `COC(=O)c1cc(=O)n(-c2ccccc2)c(=Nc2ccccc2)s1` here?
**A.** active: 17.8 µM

**Q.** With `CN(C(=O)CSc1nnc(-c2ccc(F)cc2)n1C)C1CCS(=O)(=O)C1` (stereo not drawn) as the molecule, how does the “activity, negative = inhibition” value read?
**A.** inactive: 23.2%

**Q.** With `O=C(CNc1cccc(S(=O)(=O)N2CCOCC2)c1)Nc1ccc(C(F)(F)F)cc1` as the molecule, how does the Potency read?
**A.** inconclusive: 20 µM [inhibitor, single point]

**Q.** For `O=C(NCC(O)COc1ccc([N+](=O)[O-])cc1)Nc1ccccc1` (stereo not drawn), which “activity, negative = inhibition” value is on record?
**A.** inactive: -1.98%

**Q.** Which “activity, negative = inhibition” value does the source give for `COc1ccc(-c2cc(C(=O)OC(C)C(=O)Nc3c(C)n(C)n(-c4ccccc4)c3=O)c3ccccc3n2)cc1` (stereo not drawn) here?
**A.** inactive: -20.2%

**Q.** Which “activity, negative = inhibition” value does the source give for `CCc1cccc(C)c1NC(=O)CCOc1ccccc1` here?
**A.** inactive: -1.78%

**Q.** Which Potency does the source give for `C/C(=N\NC(=O)c1cc(-c2cccc([N+](=O)[O-])c2)n[nH]1)c1ccccc1O` here?
**A.** inconclusive: 35.5 µM [inhibitor, single point]

**Q.** For `COC(=O)[C@@H]1Cc2c([nH]c3ccccc23)C(C)N1C(=O)c1ccccc1` (stereo partly drawn), which Potency is on record?
**A.** inconclusive: 35.5 µM [inhibitor, single point]

**Q.** With `Cc1cccc(C)c1N1C(=O)CC(Sc2ccccc2N)C1=O` (stereo not drawn) as the molecule, how does the “activity, negative = inhibition” value read?
**A.** inactive: -2.96%

**Q.** Which Potency does the source give for `CCC(C)[C@H](NS(=O)(=O)c1ccc(C)cc1)C(=O)N1CCC(C(=O)N[C@@H](Cc2ccccc2)C(=O)O)CC1` (stereo partly drawn) here?
**A.** inconclusive: 3.16 µM [inhibitor, full curve, poor fit]

**Q.** With `O=C(c1ccc(N2CCCC2=O)cc1)N1CCN(c2ccc(Cl)cc2)CC1` as the molecule, how does the Potency read?
**A.** inconclusive: 11.2 µM [inhibitor, single point]

**Q.** With `NNC(=O)c1oc2nc(-c3ccc(Cl)cc3)cc(-c3ccccc3)c2c1N` as the molecule, how does the “activity, negative = inhibition” value read?
**A.** inactive: -4.59%

**Q.** With `c1cc2c3c(c1)CCCN3CCC2` as the molecule, how does the “activity, negative = inhibition” value read?
**A.** inactive: -8.45%

**Q.** With `CN(C)CCNC(=O)C1CCN(Cc2cc3ccccc3n2Cc2ccccc2)CC1` as the molecule, how does the Potency read?
**A.** inconclusive: 35.5 µM [inhibitor, single point]

**Q.** Which Potency does the source give for `CCc1nc2c(OCc3cc(Cl)cc(Cl)c3)cccn2c1N(C)C(=O)c1cccc(OC)c1` here?
**A.** inconclusive: 35.5 µM [inhibitor, single point]

**Q.** With `COc1ccc2oc(-c3ccc(NC(=O)c4ccc(N5CCOCC5)c([N+](=O)[O-])c4)cc3)nc2c1` as the molecule, how does the “activity, negative = inhibition” value read?
**A.** inactive: -2.24%

**Q.** With `C=COCCCNc1ncnc2sc(-c3ccccc3)cc12` as the molecule, how does the Potency read?
**A.** inconclusive: 10 µM [inhibitor, partial curve, poor fit]

**Q.** Which “activity, negative = inhibition” value does the source give for `COc1ccc(N2CCN(CCCNC(=O)c3ccc(CS(=O)(=O)c4ccc(OC)cc4)o3)CC2)cc1` here?
**A.** inactive: -4.46%

**Q.** For `CCCOC(=O)c1c(NC(=O)C(C)Sc2nc(-c3ccccc3)cc(C(F)(F)F)n2)sc(C(=O)N(C)C)c1C` (stereo not drawn), which Potency is on record?
**A.** inconclusive: 35.5 µM [inhibitor, single point]

**Q.** With `Cc1cccc(N2CCN(C(=O)CN3C(=O)CSc4c3c(C)nn4-c3ccccc3)CC2)c1C` as the molecule, how does the Potency read?
**A.** inconclusive: 0.112 µM [inhibitor, full curve, poor fit]

**Q.** Which “activity, negative = inhibition” value does the source give for `OCc1cc(-c2ccc(Cl)c(Cl)c2)on1` here?
**A.** inactive: 5.47%

**Q.** With `CCOC1=C2[C@@H](CN(S(=O)(=O)c3ccc(C)cc3)[C@H]2c2cccc3ccccc23)[C@H]2C(=O)N(Cc3ccccc3)C(=O)[C@H]2C1` as the molecule, how does the Potency read?
**A.** inconclusive: 7.08 µM [inhibitor, full curve, poor fit]

**Q.** With `CCOC(=O)c1ccc(NC(=O)CSc2ccc3ccccc3n2)cc1` as the molecule, how does the Potency read?
**A.** inconclusive: 35.5 µM [inhibitor, single point]

**Q.** Which Potency does the source give for `COc1ccccc1C(=O)NCC(c1cccnc1)N1CCc2ccccc2C1` (stereo not drawn) here?
**A.** inconclusive: 7.94 µM [inhibitor, partial curve, poor fit]

**Q.** With `Fc1ccccc1/C=N/n1c(COc2ccccc2)n[nH]c1=S` as the molecule, how does the Potency read?
**A.** inconclusive: 0.1 µM [inhibitor, full curve, poor fit]

**Q.** Which “activity, negative = inhibition” value does the source give for `COc1ccc(C2C(C#N)=C(SC)NC3=C2C(=O)CC(C)(C)C3)cc1` (stereo not drawn) here?
**A.** inactive: 10.3%

**Q.** For `Cn1c(NCc2ccc3occc3c2)nc2cc(-c3cccc(C(F)(F)F)c3)sc2c1=O`, which Potency is on record?
**A.** inconclusive: 12.6 µM [inhibitor, partial curve]

**Q.** Which Potency does the source give for `Cc1ccc(C)c(N2CCN(C(=O)CCc3nc(-c4cccc(C(F)(F)F)c4)no3)CC2)c1` here?
**A.** inconclusive: 15.8 µM [inhibitor, single point]

**Q.** For `O=C1NC[C@H](Cc2ccccc2)N(C[C@@H]2CCCN2C[C@H](Cc2ccccc2)N2C[C@H](Cc3ccccc3)N(CCc3ccccc3)C(=O)C2=O)C1=O`, which Potency is on record?
**A.** inconclusive: 12.6 µM [inhibitor, partial curve, poor fit]
